# Measured values taken from the supplement of paper PMC10338343.
# ± gives the standard deviation. The list shows a part of the results, in another mix than the full data.
# Test system: MIWI (PIWIL1) piRISC loaded with L1MC piRNA (30 nt)
# Test: pre-steady-state target cleavage rate (min^-1); MIWI and MILI are mouse PIWI proteins and EfPiwi is from a freshwater sponge; tags in brackets are library labels; higher = faster piRNA-guided slicing of the target
# Settings: guide: L1MC piRNA 5'p-UAACUAAAUACUAUGCAAGCUGUAGGUCCU; auxiliary factor: none (no GTSF1)
# Method in brief: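 The pre-steady-state cleavage rate was calculated from a burst-and-steady-state fit. Data came from Cleave-'n-Seq, in which […] transcribed, DNA-blocked target RNA library was mixed with 1 nM active affinity-purified piRISC carrying one synthetic guide, with or without 500 nM GTSF1 partner protein, in HEPES–potassium acetate buffer at 33 °C for 0–8 or 0–960 min. Uncleaved targets were sequenced and normalised to depth and to weakly complementary targets, three trials were pooled, and k3 was capped at 0.0001 min^-1.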
# 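Also: 1 nM active piRISC with 0.1 nM target library at 33 °C single turnover.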
row,Sequence,pre-steady-state target cleavage rate
1,UCCUCCUAGUGCUUGCAUAGUAUUUACAAA,0.00215 ± 0.0017
2,UCGACCAACAGCUAGCAUAGUAUUUAGUUA,0.0286 ± 0.0073
3,UCCACGUAGAGCUUGCAUAGUAUUUAGUUA,0.0471 ± 0.0084
4,UCCUGGUACAGCUUGCAAAGUAAUUAGUUA,0.0142 ± 0.004
5,UCCUGGAUCAGCUUGGAUAGUAUUUUGUUA,0.0193 ± 0.0042
6,UCCUGGAACAGCUUGCAAUAGUAUUUAGUUA,0.0038 ± 0.0026
7,UCCACCUACAGGUUGCAAAGUAUUUAGUUA,0.0166 ± 0.0038
8,AGGACCCACAGCUUGCAUAGUAUUUAGUUA,0.0682 ± 0.0093
9,AGGACCAACAGCUUCCAUAGUAUUUAGUUA,0.00538 ± 0.0017
10,UCCUGCUACUGCUUGCAUAGUAAUUAGUUA,0.0143 ± 0.0029
11,UCCUGCUAGAGCUUGCAUAGUAUUUAGUUA,0.0297 ± 0.0053
12,UCCUGCUACAGAUUGCAUAGUAUUUAGUUA,0.0188 ± 0.0035
13,AGGACCAUGAGCUUGCAUAGUAUUUAGUUA,0.0664 ± 0.012
14,UCCUGGAUGACCUUGCAAAGUAUUUAGUUA,0.00406 ± 0.0018
15,UCGAGCUACAGCUUGCAUAGUAUUUACAAA,0.00354 ± 0.0025
16,UCCUCCUACAGCAUGCAUAGUAUUUACUUA,0.0142 ± 0.0025
17,UCCUGGAUGAGCUUGCAUAGUAUUCAGUUA,0.0236 ± 0.0075
18,UCCUGGAUCAGCUUGCAUAGUAUAUAGUUA,0.0244 ± 0.0059
19,UCCUGGUACAGCAUGCAUAGUAUUUUGUUA,0.0157 ± 0.0031
20,UCCUGGAUCAGCUUGCAUAGUUUUUUGUUA,0.0202 ± 0.0053

row,Sequence,pre-steady-state target cleavage rate
1,UCCUGGAUCAGCUUGCUAUGUAUUUAGUUA,0.00412 ± 0.0018
2,UCCUGGAUGAGCUUGCAUAGUAUUUACAAA,0.00422 ± 0.0029
3,UGGACCUACAGCUUGCAUAGUAUAUAGAUA,0.00672 ± 0.0024
4,AGGACCUACAGCAUGCAUAGUAUUUACUUA,0.0594 ± 0.011
5,UCCUGGAUGAGCAUGCAUAGUAUUAAGUUA,0.00778 ± 0.003
6,UGGAGCUACAGCUUGCAUAGUUUUUAGUUA,0.0426 ± 0.0088
7,UCCUGGAUGUGCUUUCAUAGUAUUUAGUUA,0.00697 ± 0.0029
8,AGGACCUACAGCAUGCAUAGUAUUUAGAUA,0.0177 ± 0.0048
9,UGGACCUACAGCUUGGCAUAGUAUUUAGUUA,0.0197 ± 0.0048
10,UGGACCUACAGCUUGCAUAGUAUUUUGAUA,0.0162 ± 0.0037
11,UCCUGGAACAGCUUGCAUAGUUAUUAGUAA,0.00441 ± 0.0032
12,UGGACCUACAGCUUGCUUAGUAUUUACUUA,0.0292 ± 0.0077
13,UCGAGCUACAGCUUGCAUAGUAUAUAGUUA,0.0311 ± 0.0077
14,UCCUGCUACAGCUUGCAAAGUAAUUAGUUA,0.00918 ± 0.0032
15,UGGACCUACAGCUUGCAUAGAAUAUAGUUA,0.01 ± 0.0046
16,UCGACCUAGAGCUUGCAUAGAAUUUAGUUA,0.0143 ± 0.0039
17,UCGACCUACAGCUUGCAAAGUAUUUAGAUA,0.0179 ± 0.0044
18,UCCUGGUACAGCUUAGCAUAGUAUUUAGUUA,0.0127 ± 0.0031
19,UCCACCUACAGCUUGGAAAGUAUUUAGUUA,0.00576 ± 0.0018
20,UCCUCCUUGAGCUUGCAUAGUAUUUAGAAA,0.00429 ± 0.0016
